Experimental data as given in publication PMC4057743.
These are yes or no findings as the source states them, for the method shown. Some binding calls cover weakened binding; strength is not graded here. Blank lines part the entries; values can stand above or below the substance they belong to.

Sequences of proteins named here, by UniProt entry; tags and fusion partners are left off. A change or cut given only in a name is not applied to a line headed by its entry. Residues count along the entry.
UniProt Q84MC7: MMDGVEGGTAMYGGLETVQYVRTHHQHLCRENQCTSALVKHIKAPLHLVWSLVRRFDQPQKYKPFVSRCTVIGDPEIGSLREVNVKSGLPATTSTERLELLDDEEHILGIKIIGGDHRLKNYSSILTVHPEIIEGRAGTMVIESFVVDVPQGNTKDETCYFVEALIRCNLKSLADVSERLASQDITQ
UniProt O49686: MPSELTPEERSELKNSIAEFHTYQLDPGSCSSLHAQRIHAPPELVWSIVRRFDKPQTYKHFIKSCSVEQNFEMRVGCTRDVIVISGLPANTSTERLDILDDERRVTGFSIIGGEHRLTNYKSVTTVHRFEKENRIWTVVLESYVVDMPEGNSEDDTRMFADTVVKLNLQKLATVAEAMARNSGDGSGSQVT
UniProt Q9SN12, residues 26-286: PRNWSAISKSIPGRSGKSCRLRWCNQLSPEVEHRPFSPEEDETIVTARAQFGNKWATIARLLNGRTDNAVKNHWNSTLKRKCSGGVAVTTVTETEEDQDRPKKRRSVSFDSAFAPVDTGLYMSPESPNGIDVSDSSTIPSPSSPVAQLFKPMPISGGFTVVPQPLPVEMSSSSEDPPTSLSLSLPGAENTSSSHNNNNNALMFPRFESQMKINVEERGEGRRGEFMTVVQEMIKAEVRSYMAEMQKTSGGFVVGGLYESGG
UniProt O23160: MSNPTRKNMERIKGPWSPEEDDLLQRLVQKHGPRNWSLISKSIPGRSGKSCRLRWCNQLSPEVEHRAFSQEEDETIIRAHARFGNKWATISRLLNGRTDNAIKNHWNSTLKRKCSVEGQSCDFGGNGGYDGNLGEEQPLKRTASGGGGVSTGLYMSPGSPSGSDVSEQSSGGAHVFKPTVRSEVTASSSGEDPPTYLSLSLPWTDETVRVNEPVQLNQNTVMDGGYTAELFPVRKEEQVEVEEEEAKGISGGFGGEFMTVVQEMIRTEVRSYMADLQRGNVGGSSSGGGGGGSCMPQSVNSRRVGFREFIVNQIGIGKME
UniProt Q9FDW1: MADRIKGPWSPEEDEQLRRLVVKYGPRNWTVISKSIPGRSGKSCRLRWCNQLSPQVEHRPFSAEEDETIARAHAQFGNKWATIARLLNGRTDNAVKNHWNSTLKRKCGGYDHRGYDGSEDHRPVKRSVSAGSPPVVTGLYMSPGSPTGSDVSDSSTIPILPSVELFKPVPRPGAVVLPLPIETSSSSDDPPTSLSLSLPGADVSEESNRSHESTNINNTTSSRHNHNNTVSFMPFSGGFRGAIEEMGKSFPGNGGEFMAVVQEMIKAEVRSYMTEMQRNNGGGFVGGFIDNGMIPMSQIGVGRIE

How the values were obtained:
[1] = target: RCAR1/PYL9 bait (pGBKT7) (Arabidopsis) (UniProt Q84MC7); experiment: two-hybrid; screen of an Arabidopsis GAL4 AD/cDNA library with RCAR1/PYL9 as bait
[2] = target: RCAR1/PYL9 bait (pGBKT7) (Arabidopsis) (UniProt Q84MC7); experiment: two-hybrid; AH109 yeast; baits in pGBKT7, preys in pGADT7; growth on SD/-L-T-H-A and X-α-Gal staining, 3 days at 30 °C; with or without 10 μM ABA in the medium
[3] = target: full-length RCAR11/PYR1 bait (pGBKT7) (Arabidopsis) (UniProt O49686); experiment: as above
[4] = target: T1, full-length RCAR3/PYL8 bait (pGBKT7) (Arabidopsis) (UniProt Q9FGM1); experiment: as above
T1 sequence: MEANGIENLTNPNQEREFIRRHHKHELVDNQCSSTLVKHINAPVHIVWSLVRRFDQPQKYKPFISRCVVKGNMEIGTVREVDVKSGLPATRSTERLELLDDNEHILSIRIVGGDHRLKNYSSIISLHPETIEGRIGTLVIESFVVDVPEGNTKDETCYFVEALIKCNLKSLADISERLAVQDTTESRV

[5] = target: T2, full-length RCAR8/PYL5 bait (pGBKT7) (Arabidopsis) (UniProt Q9FLB1); experiment: as above
T2 sequence: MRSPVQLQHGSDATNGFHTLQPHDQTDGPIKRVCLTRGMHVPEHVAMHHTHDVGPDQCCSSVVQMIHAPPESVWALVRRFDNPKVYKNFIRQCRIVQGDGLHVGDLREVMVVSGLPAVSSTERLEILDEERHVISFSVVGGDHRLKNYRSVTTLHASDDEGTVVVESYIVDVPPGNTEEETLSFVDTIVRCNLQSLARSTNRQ

binding [1]: binds
Substance: AtMYB77 library clone (residues 26-286) (from UniProt Q9SN12 26-286) (domain or fragment)

binding [2]: binds
Substance: full-length AtMYB73 prey (pGADT7) (from UniProt O23160 1-320)

binding [3]: no binding | binding [4]: binds | binding [5]: no binding
Substance: full-length AtMYB44 prey (pGADT7) (from UniProt Q9FDW1 1-305)

binding [1]: binds
Substance: AtMYB44 library clone (residues 48-305) (from UniProt Q9FDW1 48-305) (domain or fragment)
